B1: CPEB3 Ribozyme (parent)
chain: UAACAGGGGGCCACAGCAGAAGCGUUCACGUCGCAGCCCCUGUCAGAUUCUGGUGAAUCUGCGAAUUCUGCUGUAUAUCUC

Read counts are not given, so values of variants with three or more changes are uncertain.

The variants in the data set derive from B1. In words: self-cleavage, relative activity (ratio to wild type); higher = more cleavage; in vitro, sequencing. The gist of the method: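 After error-prone PCR and barcoding, CPEB3 ribozyme mutant libraries were transcribed with T7 RNA polymerase at 37°C for 5 hours, then given 15 min with DNase I before an EDTA stop, and they cleaved during both steps. Reverse transcription with template switching preceded Illumina sequencing. Relative activity divides a variant's cleaved/total read fraction by the unmutated ribozyme's. At least 5 reads were required per variant, and three batches were averaged.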
In the case of UAACAGGGGGCCACAGUAGAAGCGCUCACGUCGAAGCCCCUGUCAGAUUCUGGUGAGUCUGCGAAUUCUGCUGUAUAUCUC [C17U U25C C34A A57G], the self-cleavage is 0.04.

Turning to UAACAGGGGGCCACAGAAGAAGCGUUCACGUCGCAGCCCCUGUCAGAUUCUGGUGUAUCUGCGAAUUCUGCCGUAUAUCUC [C17A A56U U72C], the self-cleavage is 0.2.

As to UAACAGGGGGCCACAGUAGAAGCGAUCACGUUGCAGCCCCUGUCAGAUUCUGGUGAAUCUGCGAAUUCUACUGUAUAUCUC [C17U U25A C32U G70A], the self-cleavage worked out at 0.18.

As for UAACAGGGGGCCACAUCAGAAGCGUCCACGUCGCAGCCCCUGCCAGAUUCUGGUGAAUCUGCGAAUUCUGCUGUAUAUCUC [G16U U26C U43C], the self-cleavage was 0.51.

Turning to UAACAGGGGGCCACAGUAGGAGCGUUCACGUCGCAGCCCCUGUCAGAUUCUGGUGAAUCUGCGAAUUCUGCUGUUUAUCUC [C17U A20G A75U], the self-cleavage turned out to be 0.56.

For UAACAGGGGGCCACAGUAGAUGCGUUCACGUCGCAGCCCCUGUCAGAUUCUGGUGAAUCUGCGAAUUCUUCCGUAUAUCUC [C17U A21U G70U U72C], the self-cleavage came to 0.06.

Turning to UAACAGGGGGCCACAGUAGAAGCGAUCACGUCGCAGCCCCUGUCAGAUUCUGGUGAAUCUGCGAAUUCUGCUGUAUAUCCC [C17U U25A U80C], the self-cleavage came to 0.12.

On to UAACAGGGGGCCACAGUAGAAGCGUUCACGUCGCAGCCCCUGCCAGAUUCUGGUGAAUCUGCGAAUUCAGCAGUAUAUCUC [C17U U43C U69A U72A], for which the self-cleavage was 0.24.

Consider UAACAGGGGGCCACAGGAGAAGCGUUCACGUCGCAGCCUCUGUCAGAUUCUGGUGAAUCUGCGAAUACUGCUGUACGUCUC [C17G C39U U67A U76C A77G], for which the self-cleavage came to 0.07.

Take UAACAGGGGGCCACAGGAGAAGCGUUCACGUCGCAGCCCCUGUCAGGUUCUGGUGAAUCUGCGGAUUCUGCUGUAUAUCUC [C17G A47G A64G]: the self-cleavage was found to be 0.06.

For UAACAGGGGGCCACAGAGGAAGCGUUCACGUCGCAGCCCCUGUCAGAUUCUGGGGAAUCUGCGUAUUCUGCUGUAUAUCUC [C17A A18G U54G A64U], the self-cleavage is 0.03.

As for UAACAGGGGGCCACAGUAGAAGUGUUCACGACGCAGCCCCUGUCAGAUUCUGGUGAUUCUGCGAAUUCUGCUGUAUAUCUC [C17U C23U U31A A57U], the self-cleavage stood at 0.18.

With UAACAGGGGGCCACAGUAGGAGCGUUCACGUCGCAGCCCCUGUCAGAUUCUGAUGAAUCUGCGAUUUCUGCUGUGUAUCUC [C17U A20G G53A A65U A75G], the self-cleavage is 0.09.

With UAACAGGGGGCCACAGUAGAAGAGUUCACGUCGCAGGCCCAGUCAGAUUCUGGUGGAUCUGCGAAUUCUGCUGUAUAUCUC [C17U C23A C37G U41A A56G], the self-cleavage was 0.14.

On to UAACAGGGGGCCACAGAAGAAGCGUUCACGUCGCAGCCCCUGUCAGAUUCUGGCGAAUCUGCGAAUUCUGCUGUACAUCUC [C17A U54C U76C], for which the self-cleavage worked out at 0.16.

In the case of UAACAGGGGGCCACAGUAGAAGCGUUCACGUCGCGGCCCCUGUCAGAUUCUGGUGAAUCUGCGAAUUCUGCAGUAUAUCUC [C17U A35G U72A], the self-cleavage came out at 0.77.

Consider UAACAGGGGGCCACAGUAGGAGCGUUCACGUCGCAGCCCCUGUCAGAUUCUGGUGACUCAACGAAUCCUGCCGUAUAUCUC [C17U A20G A57C U60A G61A U67C U72C], for which the self-cleavage amounted to 0.05.

As for UAACAGGGGGCCACAGUAGAAGCGUUCACGUCGCAGCCCCUGUCGGAUUCUGGUGAAUCUGCGAAUUCUGCUGCAUAUCUC [C17U A45G U74C], the self-cleavage was found to be 0.44.

As to UAACAGGGGGCCACAGUAGAAGCGUCCAUGCCGCAGCCCCUGCCAGAUUCAGGUGAAUCUGCGAAUUCUGCUGUAUAUCUC [C17U U26C C29U U31C U43C U51A], the self-cleavage was 0.18.

With UAACAGGGGGCCACAGUUGAGACGUUCACGUCGCAGCCCCAGUCAGAUUCUGGUGAAUCUGCGAAUUCUGCUGUAUAACUC [C17U A18U A21G G22A U41A U78A], the self-cleavage came out at 0.04.

For the variant UAACAGGGGGCCACAGAAGAAGCGUUCACGUCGCAGCCCCUGUCAGACUCUGGUGAAUCUGCGGAUUCUGCCGUAUAUCUC [C17A U48C A64G U72C], the self-cleavage worked out at 0.33.

UAACAGGGGGCCACAGUAGAGGCGUACACGUCGCAGCCCCUGUCAGAUUCUGGUGAAUCUGCGAAUUCUGCUGUAUAUCUC [C17U A21G U26A]: the self-cleavage was determined as 0.21.

On to UAACAGGGGGCCACAGUAGAAGCGUUCACGUGGCAGCCCCUGUCAGAUUCUGGUGAAUCUGCGAAUACUGCAGUAUAUCAC [C17U C32G U67A U72A U80A], for which the self-cleavage came to 0.1.

For UAACAGGGGGCCACAGUAGAAGCGUUCACGUCGCAGCCCCUGUCGGAUUCUGGUGAAUCUGCGAAUUCUGCUGUAUGUCUC [C17U A45G A77G], the self-cleavage was 0.38.

With UAACAGGGGGCCACAGUAGAAGCGUUCACGUCGCAGCCCCUGUCAGUUUCAGGUGAAUCUGCGGAUUCUGCCGUAUAUCUC [C17U A47U U51A A64G U72C], the self-cleavage worked out at 0.16.

With UAACAGGGGGCCACAGGAGAAGCGUUCACGUCGCAGCCCCUGUCAGAUUCUGGUGAAUCUGCGAAUACUGCAGUAUAUCUC [C17G U67A U72A], the self-cleavage was 0.13.

As to UAACAGGGGGCCACAGAAGAAGCGUUCGCGUCGCAGUCCCUGUCAGAUUCUGGUGAAUCUGCGAAUUCUACUGUUUAUCUC [C17A A28G C37U G70A A75U], the self-cleavage was determined as 0.23.

Consider UAACAGGGGGCCACAGUAGAAGCGUUCACGUCGCAGCCCCUGUCAGAUUCUGGUGAAUAUGCGAAUUCUGCUGUAUAUCCC [C17U C59A U80C], for which the self-cleavage came to 0.25.

On to UAACAGGGGGCCACAGUAGAAGCGUUCACGUCGCAGCCCCAGUCAGAUUCUGGUGGAUCUGCGAAUUCUGCUGUAUAUCUC [C17U U41A A56G], for which the self-cleavage came out at 0.1.

For the variant UAACAGGGGGCCACAGUAGAAGCGUCCACGUCGCAGCCCCUGUCAGAUUCUGGUGAAUCUGUGAAUUCUGCUGUAUACCUC [C17U U26C C62U U78C], the self-cleavage came out at 0.06.

With UAACAGGGGGCCACAGUAGGAGCGUCCACGUCGCAGCCCCUGUCUGAUUCUGGUGAAUCUGCGAAUUCUGCCGCAUAUCUC [C17U A20G U26C A45U U72C U74C], the self-cleavage stood at 0.08.

With UAACAGGGGGCCACAGGAGAAGCCUUCACGUCGCAGCCCCUGUCAGAUUCUGGUGAAUCUGCGUAUUCUGCUGCGUAUCUC [C17G G24C A64U U74C A75G], the self-cleavage is 0.03.

On to UAACAGGGGGCCACAGUAGUAGCGUUCACGUCGCAGUCCCUGUCAGAUUCUGGUGAACCUGUGAAUUCUGCUGUAUAUCUC [C17U A20U C37U U58C C62U], for which the self-cleavage came to 0.04.

With UAACAGGGGGCCACAGAAGAAGCGUUCACGCCGCAGCCCCUGUCUGAUUCUGGUGAAUCUGCGAAUUCUGCUGUAUAUCUC [C17A U31C A45U], the self-cleavage was 0.2.

Values taken from the RNAGym collection of RNA variant scans (doi:10.1093/nar/gkz1192).
